Measured values taken from PMC7156725, “Cardiolipin is required in vivo for the stability of bacterial translocon and optimal membrane protein translocation and insertion” (Scientific Reports, 2020).

How the values were obtained:
[1] = target: the molecule itself; assay: native gel or EMSA; BN-PAGE (4-15% gel) and Western blot of inner membranes of wild-type E. coli W3110 solubilised with 2% digitonin (1 μg digitonin/μg protein); endogenous proteins; 25 μg of IM protein a lane
[2] = target: the molecule itself; assay: native gel or EMSA; BN-PAGE (4-15% gel) and Western blot of inner membranes of the cardiolipin-lacking E. coli mutant BKT12 ΔclsABC solubilised with 2% digitonin (1 μg digitonin/μg protein); endogenous proteins

B1: SecA (translocation ATPase) (enzyme)
chain: not shown
notes: SecA, E. coli, translocation ATPase, peripheral component of the translocon; endogenous
- stoichiometry N [1]: 2
- stoichiometry N [2]: 4
